Measured values as given in PMC6362812.
These are yes or no findings as the source states them, for the method shown. For some assays here: Binding seen in cells or lysates may run through a third protein. Some entries that bind do so weakly or less than the wild type. Where a sequence is shown, tags or fusion partners need not be part of it.

Amino acid sequences for entries named in this document (tags omitted).
UniProt A5YKK6: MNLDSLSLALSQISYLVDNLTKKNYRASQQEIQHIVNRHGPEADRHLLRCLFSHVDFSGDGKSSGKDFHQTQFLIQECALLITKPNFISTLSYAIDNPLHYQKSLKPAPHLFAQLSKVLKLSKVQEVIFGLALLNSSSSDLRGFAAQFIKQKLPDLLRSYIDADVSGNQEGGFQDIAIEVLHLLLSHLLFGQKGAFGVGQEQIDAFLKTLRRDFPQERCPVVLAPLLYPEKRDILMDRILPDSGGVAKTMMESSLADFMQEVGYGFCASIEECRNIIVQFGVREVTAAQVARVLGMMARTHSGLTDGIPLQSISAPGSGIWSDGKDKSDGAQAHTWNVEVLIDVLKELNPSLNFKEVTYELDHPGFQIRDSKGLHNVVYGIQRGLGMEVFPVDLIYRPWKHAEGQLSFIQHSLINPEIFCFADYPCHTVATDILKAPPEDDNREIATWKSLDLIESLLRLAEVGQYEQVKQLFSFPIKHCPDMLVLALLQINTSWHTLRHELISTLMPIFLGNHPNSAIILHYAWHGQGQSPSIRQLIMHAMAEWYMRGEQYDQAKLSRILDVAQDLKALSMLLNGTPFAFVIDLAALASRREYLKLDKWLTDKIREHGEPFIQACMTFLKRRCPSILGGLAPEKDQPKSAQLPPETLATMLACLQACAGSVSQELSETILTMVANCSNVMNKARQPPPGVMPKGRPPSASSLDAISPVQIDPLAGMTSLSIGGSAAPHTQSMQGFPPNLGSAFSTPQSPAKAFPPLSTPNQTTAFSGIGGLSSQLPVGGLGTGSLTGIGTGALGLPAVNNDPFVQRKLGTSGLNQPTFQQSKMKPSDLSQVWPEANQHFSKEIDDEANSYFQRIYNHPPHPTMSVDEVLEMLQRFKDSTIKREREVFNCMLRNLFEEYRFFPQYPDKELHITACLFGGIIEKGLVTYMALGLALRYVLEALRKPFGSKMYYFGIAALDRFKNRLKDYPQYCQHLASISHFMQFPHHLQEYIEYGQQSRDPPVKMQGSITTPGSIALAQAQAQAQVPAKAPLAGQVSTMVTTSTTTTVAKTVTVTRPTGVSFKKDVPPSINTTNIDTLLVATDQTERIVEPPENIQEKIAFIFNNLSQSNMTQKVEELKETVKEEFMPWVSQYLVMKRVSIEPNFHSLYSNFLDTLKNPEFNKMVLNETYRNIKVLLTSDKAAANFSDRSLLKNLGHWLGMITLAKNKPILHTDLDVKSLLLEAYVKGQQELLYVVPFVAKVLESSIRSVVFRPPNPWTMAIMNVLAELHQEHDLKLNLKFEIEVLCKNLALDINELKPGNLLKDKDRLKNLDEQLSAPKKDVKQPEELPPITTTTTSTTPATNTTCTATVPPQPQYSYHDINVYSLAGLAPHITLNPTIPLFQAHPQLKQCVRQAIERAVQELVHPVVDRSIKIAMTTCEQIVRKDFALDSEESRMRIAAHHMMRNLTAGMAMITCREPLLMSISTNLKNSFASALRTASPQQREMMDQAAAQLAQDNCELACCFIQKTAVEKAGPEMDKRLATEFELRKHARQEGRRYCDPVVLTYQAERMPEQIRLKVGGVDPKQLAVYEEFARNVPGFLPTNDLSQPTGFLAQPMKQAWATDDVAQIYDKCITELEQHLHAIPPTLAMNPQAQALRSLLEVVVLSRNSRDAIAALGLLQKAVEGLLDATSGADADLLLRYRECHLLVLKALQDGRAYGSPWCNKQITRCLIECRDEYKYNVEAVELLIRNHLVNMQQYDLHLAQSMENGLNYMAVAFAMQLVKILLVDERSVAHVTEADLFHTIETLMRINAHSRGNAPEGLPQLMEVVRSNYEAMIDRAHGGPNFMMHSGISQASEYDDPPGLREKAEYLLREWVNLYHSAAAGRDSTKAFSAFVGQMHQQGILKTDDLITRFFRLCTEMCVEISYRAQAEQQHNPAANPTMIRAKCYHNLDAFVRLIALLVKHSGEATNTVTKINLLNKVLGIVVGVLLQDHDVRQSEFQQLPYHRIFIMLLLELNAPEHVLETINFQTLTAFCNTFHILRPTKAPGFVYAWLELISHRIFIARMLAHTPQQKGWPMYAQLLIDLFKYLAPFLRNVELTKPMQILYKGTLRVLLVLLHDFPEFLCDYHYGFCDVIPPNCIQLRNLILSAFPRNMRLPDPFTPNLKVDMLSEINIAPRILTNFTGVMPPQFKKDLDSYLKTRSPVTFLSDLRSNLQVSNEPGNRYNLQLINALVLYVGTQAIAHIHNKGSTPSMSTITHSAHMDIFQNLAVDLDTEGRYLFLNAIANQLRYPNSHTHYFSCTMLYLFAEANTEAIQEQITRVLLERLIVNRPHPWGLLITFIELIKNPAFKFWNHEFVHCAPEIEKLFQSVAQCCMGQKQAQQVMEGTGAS
UniProt Q92600: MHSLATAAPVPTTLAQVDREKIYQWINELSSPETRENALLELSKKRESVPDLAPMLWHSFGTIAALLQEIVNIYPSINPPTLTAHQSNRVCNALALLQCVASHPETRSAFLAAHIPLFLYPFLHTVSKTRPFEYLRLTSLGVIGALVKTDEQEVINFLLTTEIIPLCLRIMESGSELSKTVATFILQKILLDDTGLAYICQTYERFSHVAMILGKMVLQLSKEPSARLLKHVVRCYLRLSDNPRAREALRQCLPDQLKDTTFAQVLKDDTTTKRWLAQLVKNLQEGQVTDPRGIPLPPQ
UniProt O75175: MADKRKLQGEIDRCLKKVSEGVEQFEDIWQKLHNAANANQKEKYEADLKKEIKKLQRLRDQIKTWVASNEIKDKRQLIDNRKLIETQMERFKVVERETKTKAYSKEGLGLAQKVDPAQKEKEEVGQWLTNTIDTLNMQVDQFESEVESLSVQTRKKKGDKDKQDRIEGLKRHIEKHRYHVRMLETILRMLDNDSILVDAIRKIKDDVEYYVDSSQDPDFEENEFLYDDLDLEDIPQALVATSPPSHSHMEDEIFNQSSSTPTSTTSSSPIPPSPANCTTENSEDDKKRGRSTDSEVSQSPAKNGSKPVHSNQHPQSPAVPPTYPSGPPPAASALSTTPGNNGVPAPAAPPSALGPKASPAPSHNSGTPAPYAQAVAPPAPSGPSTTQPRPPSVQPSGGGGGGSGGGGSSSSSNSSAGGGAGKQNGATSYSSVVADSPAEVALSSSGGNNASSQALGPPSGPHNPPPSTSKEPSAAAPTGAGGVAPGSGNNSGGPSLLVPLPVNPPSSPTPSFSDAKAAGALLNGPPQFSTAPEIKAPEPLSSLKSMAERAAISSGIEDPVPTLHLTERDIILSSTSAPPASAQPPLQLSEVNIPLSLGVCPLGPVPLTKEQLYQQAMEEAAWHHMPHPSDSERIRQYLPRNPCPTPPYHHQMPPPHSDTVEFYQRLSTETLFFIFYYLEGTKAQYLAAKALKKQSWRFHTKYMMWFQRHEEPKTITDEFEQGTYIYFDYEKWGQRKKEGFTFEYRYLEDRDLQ
UniProt Q9NZN8: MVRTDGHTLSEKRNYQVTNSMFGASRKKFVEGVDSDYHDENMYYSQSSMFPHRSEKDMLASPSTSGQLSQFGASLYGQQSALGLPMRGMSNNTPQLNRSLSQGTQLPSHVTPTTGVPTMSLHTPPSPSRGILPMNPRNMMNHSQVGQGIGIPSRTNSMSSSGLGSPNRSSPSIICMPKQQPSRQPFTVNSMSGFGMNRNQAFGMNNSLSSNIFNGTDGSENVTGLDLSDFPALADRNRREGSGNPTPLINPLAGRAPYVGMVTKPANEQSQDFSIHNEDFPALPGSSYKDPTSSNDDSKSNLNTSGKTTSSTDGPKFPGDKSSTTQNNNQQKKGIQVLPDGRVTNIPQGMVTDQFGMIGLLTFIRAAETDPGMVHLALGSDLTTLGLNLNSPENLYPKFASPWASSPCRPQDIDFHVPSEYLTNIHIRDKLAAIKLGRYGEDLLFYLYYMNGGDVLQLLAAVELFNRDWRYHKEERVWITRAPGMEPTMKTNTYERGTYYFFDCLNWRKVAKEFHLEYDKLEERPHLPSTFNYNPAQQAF

Legend:
[1] = target: T1, V5-SBP-MBP-tagged Hs NOT4-C ΔC2b (human) (UniProt O95628); assay: pull-down; SBP pull-down: V5-SBP-MBP-tagged Hs NOT4 constructs expressed in HEK293T, RNase A-treated cleared lysate in NET buffer (50 mM Tris/Cl pH 7.5, 150 mM NaCl, 0.1% Triton X-100, 1 mM EDTA, 10% glycerol), 1 h at 4°C on streptavidin sepharose; endogenous proteins detected by Western blot
T1 sequence: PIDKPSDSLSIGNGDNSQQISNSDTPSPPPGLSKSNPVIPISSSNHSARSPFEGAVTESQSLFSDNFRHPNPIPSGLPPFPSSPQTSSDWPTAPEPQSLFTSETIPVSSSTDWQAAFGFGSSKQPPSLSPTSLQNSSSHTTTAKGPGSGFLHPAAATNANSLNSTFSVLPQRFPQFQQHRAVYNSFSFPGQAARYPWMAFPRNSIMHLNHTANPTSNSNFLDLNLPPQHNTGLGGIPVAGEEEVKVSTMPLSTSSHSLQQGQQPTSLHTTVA

[2] = target: T2, V5-SBP-MBP-tagged Hs NOT4-C (human) (UniProt O95628); assay: as above
T2 sequence: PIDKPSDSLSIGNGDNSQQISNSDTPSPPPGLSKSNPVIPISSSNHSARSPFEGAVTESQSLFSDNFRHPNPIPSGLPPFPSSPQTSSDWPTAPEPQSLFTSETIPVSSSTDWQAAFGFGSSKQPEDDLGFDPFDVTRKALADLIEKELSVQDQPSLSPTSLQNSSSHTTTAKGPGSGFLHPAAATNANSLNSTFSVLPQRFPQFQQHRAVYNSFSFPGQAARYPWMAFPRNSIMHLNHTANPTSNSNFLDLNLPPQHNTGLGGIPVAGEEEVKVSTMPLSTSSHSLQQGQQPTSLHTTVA

[3] = target: T3, V5-SBP-MBP-tagged Hs NOT4-C ΔC2 (human) (UniProt O95628); assay: as above
T3 sequence: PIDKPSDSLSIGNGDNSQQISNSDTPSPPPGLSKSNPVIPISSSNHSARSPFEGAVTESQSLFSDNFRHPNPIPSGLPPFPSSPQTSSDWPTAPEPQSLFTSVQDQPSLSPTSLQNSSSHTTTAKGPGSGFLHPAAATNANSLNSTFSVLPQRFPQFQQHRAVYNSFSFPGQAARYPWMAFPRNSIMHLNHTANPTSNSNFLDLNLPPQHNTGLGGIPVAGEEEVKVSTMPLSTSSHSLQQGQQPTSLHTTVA

[4] = target: T4, MBP-tagged Hs NOT4-C (bacterially expressed) (human) (UniProt O95628); assay: pull-down; MBP pull-down: MBP-tagged Hs NOT4 or fragments (isolated on Ni-NTA) immobilised on amylose resin, excess of purified CCR4–NOT proteins, 1 h, 50 mM Na/HEPES pH 7.5, 300 mM NaCl, 2 mM β-mercaptoethanol; maltose elution, SDS-PAGE, Coomassie; both purified
T4 sequence: T2 sequence

[5] = target: T5, MBP-tagged Hs NOT4 C3 region (human) (UniProt O95628); assay: as above
T5 sequence: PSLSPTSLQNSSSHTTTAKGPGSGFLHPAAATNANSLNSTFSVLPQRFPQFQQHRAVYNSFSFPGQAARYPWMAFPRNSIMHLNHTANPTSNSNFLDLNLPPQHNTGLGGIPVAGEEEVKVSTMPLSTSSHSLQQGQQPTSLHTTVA

[6] = target: T6, MBP-tagged Hs NOT4 C1 region (human) (UniProt O95628); assay: as above
T6 sequence: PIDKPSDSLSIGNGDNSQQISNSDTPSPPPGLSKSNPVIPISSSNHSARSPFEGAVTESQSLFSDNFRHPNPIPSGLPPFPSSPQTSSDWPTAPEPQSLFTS

[7] = target: T7, MBP-tagged Hs NOT4 (full length, bacterially expressed) (human) (UniProt O95628); assay: as above
T7 sequence: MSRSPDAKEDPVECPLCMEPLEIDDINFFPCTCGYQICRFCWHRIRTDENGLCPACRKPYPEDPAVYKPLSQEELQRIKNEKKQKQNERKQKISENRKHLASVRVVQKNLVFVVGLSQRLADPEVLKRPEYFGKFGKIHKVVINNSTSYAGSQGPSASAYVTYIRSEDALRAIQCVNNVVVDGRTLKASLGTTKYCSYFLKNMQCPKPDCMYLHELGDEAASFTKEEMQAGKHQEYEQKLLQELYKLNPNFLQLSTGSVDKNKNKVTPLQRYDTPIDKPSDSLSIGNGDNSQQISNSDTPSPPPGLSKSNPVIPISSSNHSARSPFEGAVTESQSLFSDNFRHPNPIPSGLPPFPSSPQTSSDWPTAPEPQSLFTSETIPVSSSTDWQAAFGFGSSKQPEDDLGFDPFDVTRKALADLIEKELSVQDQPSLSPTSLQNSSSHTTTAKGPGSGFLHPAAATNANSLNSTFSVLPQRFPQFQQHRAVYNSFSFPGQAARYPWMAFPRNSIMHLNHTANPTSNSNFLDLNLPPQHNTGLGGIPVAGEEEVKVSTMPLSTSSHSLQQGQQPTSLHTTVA

[8] = target: T8, MBP-tagged Hs NOT4 C2 region (human) (UniProt O95628); assay: as above
T8 sequence: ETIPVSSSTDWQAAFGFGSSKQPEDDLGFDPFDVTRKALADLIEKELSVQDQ

Substance	binding [1]	binding [2]	binding [3]	binding [4]	binding [5]	binding [6]	binding [7]	binding [8]
endogenous NOT1 (HEK293T) (from UniProt A5YKK6 1-2376)	no binding	binds	no binding					
Hs CAF40 (purified recombinant, used in MBP pull-downs) (from UniProt Q92600 1-299)				binds	no binding	no binding	binds	binds
endogenous NOT3 (HEK293T) (from UniProt O75175 1-753)	no binding	binds	no binding					

The remaining lines, values ahead:

binding [1]	binding [2]	binding [3]	binding [4]	binding [5]	binding [6]	binding [7]	binding [8]	Substance
no binding	binds	no binding						endogenous NOT2 (HEK293T) (from UniProt Q9NZN8 1-540)
no binding	binds	no binding						endogenous CAF40 (HEK293T) (from UniProt Q92600 1-299)
